# ± gives the standard deviation of the averaged measurements. In all, about 33,000 sequences were measured (“E-score (dimensionless, -0.5 to 0.5)”: median about -0.049, highest 2% from about 0.37 on). The list shows a part of the results.
# Tested on: T1, PmTbr T-box DNA-binding domain (GST fusion)
# T1 sequence: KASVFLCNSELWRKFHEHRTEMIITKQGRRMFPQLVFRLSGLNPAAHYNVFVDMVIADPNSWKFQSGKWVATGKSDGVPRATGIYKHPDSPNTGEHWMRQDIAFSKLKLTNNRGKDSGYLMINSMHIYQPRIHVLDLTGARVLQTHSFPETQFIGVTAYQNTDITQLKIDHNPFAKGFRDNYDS
# Assay: PBM E-score of 8-mer (E-score (dimensionless, -0.5 to 0.5)); Tbr is Tbrain of the sea star Patiria miniata (Pm) or the sea urchin Strongylocentrotus purpuratus (Sp); higher = stronger binding preference; most listed sequences are background and not binding sites
# Settings: the construct has about 5 more residues each side
# In short: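 Primer extension turned Universal Agilent oligonucleotide arrays double-stranded. They were incubated with 200 nM protein in PBS (pH 7.5); the protein was a GST-fused Tbr T-box DNA-binding domain expressed in BL21 E. coli at 20 °C and purified on glutathione. Every ungapped 8-mer was scored from the scanned, quantified probe intensities, and the Universal PBM Analysis Suite gave each an enrichment E-score averaged over duplicate arrays.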
row,Sequence,PBM E-score of 8-mer
1,AGAACGAA,-0.0612 ± 0.042
2,GCCCTAGC,-0.203 ± 0.061
3,CATATTTA,-0.0588 ± 0.093
4,AAGATAAT,-0.18 ± 0.038
5,GCGGTCAA,-0.18 ± 0.05
6,CCGCGGTC,-0.222 ± 0.077
7,TTTGCAAA,-0.056 ± 0.12
8,GTCTAGCA,0.141 ± 0.028
9,TCACGTCA,0.0939 ± 0.054
10,GAAGTGCA,0.179 ± 0.012
11,AGTGGGGC,0.0261 ± 0.12
12,TAAAGTGA,0.216 ± 0.056
13,ACTCCAAG,0.00615 ± 0.0035
14,ACGGTAAA,-0.267 ± 0.12
15,GAGTTGCC,0.0293 ± 0.068
16,ACCCTTGA,-0.0411 ± 0.022
17,ACAATGCG,0.217 ± 0.015
18,ACAGTGTA,0.0105 ± 0.032
19,AACTGTCA,0.3 ± 0.049
20,ACCTGCAG,0.118 ± 0.037
21,AGTTGCGA,0.412 ± 0.0052
22,CATCTCGC,0.172 ± 0.027

row,Sequence,PBM E-score of 8-mer
1,AGCTAGTC,0.0595 ± 0.059
2,CCCTCGAG,-0.301 ± 0.036
3,CCTATGAG,-0.187 ± 0.01
4,AAGACGTC,-0.123 ± 0.039
5,AAAAACGC,0.121 ± 0.033
6,AGATGACG,0.066 ± 0.088
7,AGAGCGAC,-0.0157 ± 0.028
8,GCCACGAA,0.039 ± 0.026
9,ATACTTTC,0.0343 ± 0.068
10,ACTCTGTC,0.0361 ± 0.024
11,CTTGATAA,0.151 ± 0.072
12,GTCAGCAC,0.286 ± 0.0094
13,CGCTCGCA,0.337 ± 0.0072
14,AAAACAGA,-0.132 ± 0.062
15,ATATGTCC,-0.203 ± 0.019
16,ACCCCCAT,-0.113 ± 0.0049
17,CCGAACCC,-0.364 ± 0.025
18,CGTGGGAG,-0.087 ± 0.053
19,CTTCCTAA,-0.0585 ± 0.068
20,CCGCACTA,0.0832 ± 0.031
21,TAATCCAA,-0.067 ± 0.059
22,CCCGAGTA,-0.0583 ± 0.034

row,Sequence,PBM E-score of 8-mer
1,CCCCAAAC,-0.132 ± 0.029
2,CCCTCTCA,0.0553 ± 0.024
3,ACTCGAAG,0.0915 ± 0.0019
4,ACCGAGAG,-0.0794 ± 0.012
5,AACGGACC,-0.109 ± 0.082
6,GCCGCTTA,-0.0463 ± 0.018
7,CCGAAGAG,-0.172 ± 0.08
8,GGGCGTGA,0.429 ± 0.0092
9,TATACAAA,-0.128 ± 0.064
10,GTCGACAA,0.295 ± 0.022
11,ACAAGTTC,0.152 ± 0.083
12,CCAATGAG,-0.195 ± 0.063
13,AGCTGTCG,0.3103 ± 0.003
14,AATTACGC,-0.0811 ± 0.038
15,CTGACGGC,-0.0163 ± 0.0013
16,ATCACAGA,0.129 ± 0.011
17,AGGCAAAA,-0.162 ± 0.044
18,AGCCAGAT,-0.164 ± 0.014
19,GGAACTAA,-0.03 ± 0.01
20,CGATAGTA,-0.0992 ± 0.081
21,CTGTTTGC,0.0865 ± 0.013
22,CTACATGA,-0.0685 ± 0.044

row,Sequence,PBM E-score of 8-mer
1,CGATTGAA,0.007 ± 0.0015
2,AGGCCACG,-0.298 ± 0.036
3,TAGCGCGA,0.3803 ± 0.0017
4,AGCGTTAA,0.265 ± 0.06
5,ACGTGTTA,0.442 ± 0.015
6,AGATAGCA,0.132 ± 0.017
7,AGAAGGAA,-0.158 ± 0.066
8,ATTGTTCA,-0.0585 ± 0.03
9,CTAGGCGA,0.0555 ± 0.032
10,GACTTTAC,-0.124 ± 0.039
11,ACGGGAAC,-0.105 ± 0.032
12,ACTGAGTG,0.152 ± 0.014
13,GAAGTGTC,0.454 ± 0.0065
14,AGGTTTCA,0.178 ± 0.097
15,ACTAAGCA,-0.23 ± 0.048
16,CCTGCTGC,-0.114 ± 0.039
17,CATTCTAA,-0.168 ± 0.0046
18,AATCACTC,0.064 ± 0.0014
19,ATCAGAGA,-0.329 ± 0.017
20,ACGCACCA,0.0123 ± 0.072
21,TACTATCA,-0.101 ± 0.12
22,CATATACC,-0.222 ± 0.0056

row,Sequence,PBM E-score of 8-mer
1,GTTTCGCA,0.3685 ± 0.0028
2,GGGGCAGA,-0.165 ± 0.033
3,ACCCGCGT,0.0988 ± 0.05
4,GAATCGCC,0.0244 ± 0.02
5,TTGGTAAA,-0.0778 ± 0.047
6,AGGCTTCC,-0.191 ± 0.065
7,CCCGTGAA,0.121 ± 0.039
8,CGGATGTA,-0.231 ± 0.047
9,AGGAGGCA,-0.148 ± 0.06
10,TGATCTAA,-0.159 ± 0.099
11,GTAGAAAA,-0.138 ± 0.0086
12,AGCCGATA,-0.128 ± 0.071
13,GGTCTGAA,-0.328 ± 0.021
14,CTTGACTC,-0.217 ± 0.046
15,ACTTACGG,-0.0227 ± 0.053
16,ATGAGGCC,-0.283 ± 0.021
17,GCTGTGGA,0.0103 ± 0.095
18,ACAGACGG,0.106 ± 0.028
19,AAATGGCC,-0.316 ± 0.0079
20,CAAAGGGA,-0.136 ± 0.0072
21,TGCGTTAA,0.109 ± 0.017
22,AGTACCAA,-0.13 ± 0.028
